# Source: PubChem BioAssay AID624255 (Broad Institute, 2012)
# Screen size: about 77,000 compounds; about 4,600 (6%) were called active. The inconclusive results got no clear call from the source; some entries with a clear call stand among them for comparison.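 The calls were made as follows: active = mean inhibition above about 93%, with at least 55% of replicates each passing it (limit read from the data, passing the limit was not always enough); inconclusive = only one of those two conditions holds; inactive = neither condition holds.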
# Assay: T. cruzi intracellular proliferation inhibitors, primary screen, cell-based, beta-gal Tulahuen parasites, NIH3T3 host, luminescence (AID 624255)
# Details: T. cruzi beta-gal in NIH3T3, GalScreen luminescence, 90 h; at 8.34 µM; active compounds read high
row,Structure (SMILES),inhibition
1,C[C@@H]1CN([C@@H](C)CO)C(=O)c2cccc(NC(=O)Nc3ccc(F)cc3)c2O[C@@H]1CN(C)C(=O)Nc1ccc(C(F)(F)F)cc1,inconclusive: 96.2%
2,COc1cccc(-c2ccc([C@@H]3[C@H](CO)N4CCCCN(C(=O)NC(C)C)C[C@@H]34)cc2)c1,active: 102%
3,C[C@H]1CN([C@@H](C)CO)C(=O)Cc2cc(NC(=O)CCN3CCOCC3)ccc2O[C@@H]1CN(C)S(=O)(=O)c1ccc(Cl)cc1,inactive: -9.44%
4,COc1cccc(S(=O)(=O)N(C)C[C@@H]2OCc3cn(nn3)CCCC(=O)N([C@@H](C)CO)C[C@H]2C)c1,inconclusive: 114%
5,COc1cccc(-c2ccc3c(c2)O[C@H](CN(C)Cc2cncnc2)[C@H](C)CN([C@@H](C)CO)S3(=O)=O)c1,active: 96.7%
6,CO[C@@H](CN(C)S(=O)(=O)c1ccc(Cl)cc1)[C@@H](C)CN([C@H](C)CO)S(=O)(=O)c1cccc(Cl)c1,inconclusive: 95.3%
7,Cc1noc(C)c1NC(=O)Nc1ccc2c(c1)CC(=O)N([C@@H](C)CO)C[C@@H](C)[C@@H](CN(C)CC1CCCCC1)O2,inactive: -37.5%
8,O=C(C1CCCC1)N1[C@H](CO)[C@H]2c3ccccc3N(S(=O)(=O)c3ccc(F)cc3)C[C@H]21,inactive: 45%
9,COc1ccc(NC(=O)Nc2ccc3c(c2)C(=O)N([C@@H](C)CO)C[C@H](C)[C@@H](CN(C)C(=O)Nc2ccc(C(F)(F)F)cc2)OCCCC[C@H](C)O3)cc1,inconclusive: 121%
10,COc1ccc(C#Cc2ccc3c(c2)O[C@@H](CN(C)C(=O)Nc2cccc(OC)c2)[C@@H](C)CN([C@@H](C)CO)S3(=O)=O)cc1,inconclusive: 74.9%
11,C[C@H](O)C#Cc1cnc2c(c1)C(=O)N([C@@H](C)CO)C[C@@H](C)[C@H](CN(C)C(=O)Cc1ccccn1)O2,inactive: 3.65%
12,COCC#Cc1ccc2c(c1)O[C@@H](CN(C)Cc1ccncc1)[C@H](C)CN([C@@H](C)CO)S2(=O)=O,inconclusive: 96.6%
13,Cc1noc(C)c1S(=O)(=O)N(C)C[C@H]1OCCCC[C@H](C)Oc2ccc(NC(=O)Nc3ccc4c(c3)OCO4)cc2C(=O)N([C@@H](C)CO)C[C@@H]1C,inconclusive: 96.8%
14,C[C@H](CO)N1C[C@H](C)[C@H](CN(C)C)OCCCC[C@H](C)Oc2ccc(NC(=O)Nc3ccc(F)cc3)cc2C1=O,inactive: 58.5%
15,O=C(NCCc1ccccc1)[C@@H]1[C@@H](CO)[C@@H]2Cn3c(cccc3=O)[C@H]1N2C(=O)C1CCC1,inconclusive: 100%
16,O=C(C1CCCC1)N1CCCCN2[C@H](CO)[C@H](c3ccc(C#CC4CC4)cc3)[C@@H]2C1,active: 120%
17,Cc1ccc(S(=O)(=O)Nc2ccc3c(c2)C(=O)N([C@H](C)CO)C[C@H](C)[C@@H](CN(C)Cc2ccc4c(c2)OCO4)OCCCC[C@@H](C)O3)cc1,inactive: 37.1%
18,O=S(=O)(c1ccccc1F)N1CCCCN2[C@H](CO)[C@H](c3ccc(-c4cccnc4)cc3)[C@H]2C1,inconclusive: 97.3%
19,COc1ccc(CNC(=O)c2cc3c(c(-c4cccc(-c5cccc(C#N)c5)c4)n2)[C@@H](CCO)N([S@](=O)C(C)(C)C)C3)cc1,inconclusive: 96.5%

row,Structure (SMILES),inhibition
1,COc1cccc(S(=O)(=O)N2CCCCN3[C@H](CO)[C@H](c4ccc(-c5ccncc5)cc4)[C@H]3C2)c1,active: 111%
2,C[C@H](CO)N1C[C@H](C)[C@@H](CN(C)C(=O)Nc2ccc3c(c2)OCO3)Oc2c(NC(=O)Nc3ccc(F)cc3)cccc2C1=O,inactive: 49.8%
3,C[C@H](CO)N1C[C@H](C)[C@H](CN(C)Cc2ccc(Oc3ccccc3)cc2)Oc2ccc(N(C)C)cc2C1=O,active: 98.1%
4,COc1ccccc1-c1ccc2c(c1)O[C@H](CN(C)S(=O)(=O)c1ccccc1)[C@H](C)CN([C@@H](C)CO)S2(=O)=O,inconclusive: 97.2%
5,COc1ccc(C(=O)N2C[C@H]3[C@@H](c4ccccc42)[C@H](CO)N3Cc2ccc3c(c2)OCO3)cc1,inconclusive: 98.4%
6,Cc1cc(C(=O)Nc2cccc3c2O[C@H](CN(C)Cc2ccc(C(=O)Nc4ccccc4N)cc2)[C@H](C)CN([C@@H](C)CO)C3=O)n(C)n1,active: 92.9%
7,C[C@H](CO)N1C[C@H](C)[C@@H](CN(C)C(=O)Nc2ccccc2F)Oc2cc(-c3cccc(C#N)c3)ccc2S1(=O)=O,inconclusive: 92.1%
8,O=C(C[C@H]1CC[C@@H](NC(=O)Cc2cccnc2)[C@@H](CO)O1)NCc1ccc2c(c1)OCO2,inactive: -49.3%
9,C[C@H]1CN([C@@H](C)CO)C(=O)c2cc(/C=C/c3ccccc3)cnc2O[C@H]1CN(C)S(=O)(=O)c1ccc(F)cc1,inconclusive: 63.3%
10,C[C@H](CO)N1C[C@H](C)[C@H](CN(C)Cc2ccc(Cl)c(Cl)c2)Oc2c(NC(=O)Nc3ccc4c(c3)OCO4)cccc2C1=O,inconclusive: 109%
11,COc1ccccc1-c1ccc2c(c1)O[C@@H](CN(C)C)[C@@H](C)CN([C@@H](C)CO)S2(=O)=O,inactive: 22.4%
12,C[C@H](NC(=O)C[C@H]1C[C@@H]2c3cc(NC(=O)Nc4ccc(C(F)(F)F)cc4)ccc3O[C@@H]2[C@H](CO)O1)c1ccccc1,inconclusive: 103%
13,C[C@H](CO)N1C[C@H](C)[C@H](CN(C)S(=O)(=O)c2ccccc2F)Oc2ncc(C#Cc3ccccc3F)cc2C1=O,inconclusive: 84.9%
14,CN1c2ccc(-c3ccccc3)cc2[C@H]2[C@H](CCN2C(=O)Cc2ccccn2)[C@H]1CO,inconclusive: 97.2%
15,CCCC(=O)Nc1ccc2c(c1)OC[C@@H](C)N(C(=O)CN(C)C)C[C@@H](C)[C@H](OC)CN(C)C2=O,inconclusive: 53.3%
16,C[C@H]1CCCCO[C@H](CN(C)Cc2ccc3c(c2)OCO3)[C@@H](C)CN([C@@H](C)CO)C(=O)c2cc(NC(=O)Nc3ccc(C(F)(F)F)cc3)ccc2O1,inconclusive: 122%
17,Cc1ccc(S(=O)(=O)N2C[C@@H](O)COC[C@H]3O[C@H](CC(=O)NCc4ccc(Cl)c(Cl)c4)CC[C@@H]32)cc1,inactive: 58%
18,COc1cccc(S(=O)(=O)Nc2ccc3c(c2)[C@H]2C[C@H](CC(=O)NC4CCCCC4)O[C@H](CO)[C@H]2O3)c1,active: 124%
19,COc1ccc(S(=O)(=O)N2CCCCN3[C@H](CO)[C@@H](c4ccc(C#CC5CC5)cc4)[C@H]3C2)cc1,inconclusive: 95.1%

row,Structure (SMILES),inhibition
1,CN(C)CC#Cc1ccc([C@H]2[C@H](CO)N3CCCCN(C(=O)CN(C)C)C[C@@H]23)cc1,inconclusive: 98%
2,C[C@@H]1CN([C@@H](C)CO)S(=O)(=O)c2ccc(C#CCN(C)C)cc2O[C@H]1CN(C)Cc1ccccn1,inconclusive: 102%
3,Cc1ccc(S(=O)(=O)Nc2ccc3c(c2)C(=O)N([C@@H](C)CO)C[C@H](C)[C@H](CN(C)C(=O)CCCN(C)C)OCCCC[C@@H](C)O3)cc1,inactive: 54.3%
4,COc1ccc(NC(=O)Nc2ccc3c(c2)C(=O)N([C@@H](C)CO)C[C@@H](C)[C@@H](CN(C)C(=O)Nc2ccc(C(F)(F)F)cc2)OCCCC[C@@H](C)O3)cc1,inconclusive: 119%
5,C[C@@H]1CCCCO[C@H](CN(C)Cc2ccc(Cl)c(Cl)c2)[C@H](C)CN([C@@H](C)CO)C(=O)c2cc(NC(=O)C3CCCCC3)ccc2O1,inconclusive: 107%
6,C[C@@H]1CN([C@H](C)CO)S(=O)(=O)c2ccc(C#CC3CC3)cc2O[C@@H]1CN(C)C(=O)c1ccccc1,inconclusive: 96.2%
7,C[C@@H]1CN([C@@H](C)CO)C(=O)c2cc(NC(=O)c3ccccc3)ccc2O[C@@H](C)CCCCO[C@H]1CN(C)Cc1ccncc1,active: 101%
8,CC=Cc1ccc2n(c1=O)C[C@@H]1N[C@H]2[C@H](C(=O)NC2CCCCC2)[C@H]1CO (mixture of isomers),inactive: 81.1%
9,CO[C@@H]1CN(C)C(=O)c2cc(NC(C)=O)ccc2OC[C@@H](C)N(C(=O)c2cnccn2)C[C@@H]1C,inconclusive: 67.2%
10,C[C@@H]1CCCCO[C@@H](CN(C)Cc2ccc3c(c2)OCO3)[C@H](C)CN([C@@H](C)CO)C(=O)c2cc(NC(=O)Nc3cccc4ccccc34)ccc2O1,inconclusive: 108%
11,C[C@@H]1CCCCO[C@@H](CN(C)S(=O)(=O)c2cn(C)cn2)[C@@H](C)CN([C@@H](C)CO)C(=O)c2cc(NS(C)(=O)=O)ccc2O1,active: 102%
12,C[C@@H]1CN([C@H](C)CO)C(=O)c2cc(NC(=O)c3ccccc3)ccc2O[C@@H](C)CCCCO[C@H]1CN(C)Cc1ccccc1,active: 103%
13,C[C@@H]1CCCCO[C@H](CN(C)C(=O)C2CCCCC2)[C@@H](C)CN([C@@H](C)CO)C(=O)c2cc(NC(=O)Nc3cccc4ccccc34)ccc2O1,inconclusive: 121%
14,Cc1cccc(-c2ccc([C@@H]3[C@H]4CN(S(=O)(=O)c5cccs5)CCCCN4[C@H]3CO)cc2)c1,active: 97.6%
15,C[C@H](CO)N1C[C@H](C)[C@H](CN(C)C(=O)Nc2ccc(C(F)(F)F)cc2)OCCCC[C@H](C)Oc2ccc(NC(=O)Nc3ccc(F)cc3)cc2C1=O,inconclusive: 102%
16,O=S(=O)(Cc1ccccc1)N1CCCCN2[C@H](CO)[C@@H](c3ccc(-c4ccc(F)cc4)cc3)[C@H]2C1,inconclusive: 97.3%
17,O=C(Cc1ccccn1)NCC[C@H]1CC[C@@H](NC(=O)Nc2ccccc2)[C@H](CO)O1,inactive: 24.3%
18,O=C(Nc1cccc(F)c1)N1C[C@@H]2[C@H](c3ccccc31)[C@H](CO)N2C(=O)c1cccnc1,inactive: 9.84%
